# In all, about 2,700 compounds went through this assay and about 160 (5.9%) showed an effect of 50% or more. The list shows a part of the results.
# Target: Nonstructural protein 3 (Zika virus) (UniProt A0A024AXB9)
# [1] = PRVABC59, Concentration 15.0 uM, Number of replicates 1.0
# [2] = PRVABC59, Concentration 10.0 uM, Number of replicates 1.0
# [3] = PRVABC59, Concentration 50.0 uM, Number of replicates 1.0
# Sequence of UniProt A0A024AXB9 (A0A024AXB9 as listed by the source): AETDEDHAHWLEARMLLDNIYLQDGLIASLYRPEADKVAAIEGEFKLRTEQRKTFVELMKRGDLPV
smiles,measurement,setting,value
Cc1nn(CC(=O)Nc2nc(C)c(C)s2)cc1C1CCNCC1,inhibition,"PRVABC59, Concentration 49.5 uM, Number of replicates 2.0, Standard deviation 4.241738323092667 %",-4.55%
same,inhibition,"PRVABC59, Concentration 99.01 uM, Number of replicates 2.0, Standard deviation 4.904253485673597 %",-1.92%
same,inhibition,"PRVABC59, Concentration 198.0 uM, Number of replicates 2.0, Standard deviation 3.099258305711253 %",0.621%
O=C(N[C@H]1CCn2c(n[nH]c2=O)C1)c1n[nH]cc1[C@H]1CCCNC1,inhibition,"PRVABC59, Concentration 49.5 uM, Number of replicates 2.0, Standard deviation 0.6254746576482224 %",-1.69%
same,inhibition,"PRVABC59, Concentration 99.01 uM, Number of replicates 2.0, Standard deviation 1.6431527146733609 %",-3.14%
same,inhibition,"PRVABC59, Concentration 198.0 uM, Number of replicates 2.0, Standard deviation 2.922299536029049 %",-3.27%
Cc1cc(NC(=O)c2cc(Cl)ccc2NS(=O)(=O)c2ccc(Oc3ccccc3Cl)cc2)c(Cl)cc1F,inhibition,[1],27.9%
Cc1cc(Br)ccc1CNC(=O)C1CCN(c2ccc(C=O)cc2)CC1,inhibition,[2],-8.92%
O=C(Cc1ccccc1)N1CCN(C(=O)c2cc(Cl)ccc2NS(=O)(=O)c2ccc(Oc3ccccc3Cl)cc2)CC1,inhibition,[1],5.93%
O=C(Nc1ccc(Br)nc1)c1cc(Cl)ccc1NS(=O)(=O)c1ccc(Oc2ccccc2Cl)cc1,inhibition,[1],35.2%
O=C(c1ccco1)N1CCN(C(=O)c2cc(Cl)ccc2NS(=O)(=O)c2ccc(Oc3ccccc3Cl)cc2)CC1,inhibition,[1],2.79%
O=C(Nc1cccnc1Br)c1cc(Cl)ccc1NS(=O)(=O)c1ccc(Oc2ccccc2Cl)cc1,inhibition,[1],23%
CN(c1ccc(Cl)cc1C(N)=O)S(=O)(=O)c1ccc(Oc2ccccc2Cl)cc1,inhibition,"PRVABC59, Concentration 49.5 uM, Number of replicates 2.0, Standard deviation 3.2123410819579834 %",10.5%
same,inhibition,"PRVABC59, Concentration 99.01 uM, Number of replicates 2.0, Standard deviation 3.01646680666409 %",13.3%
same,inhibition,"PRVABC59, Concentration 198.0 uM, Number of replicates 2.0, Standard deviation 0.008705178678834097 %",13.5%
CCn1ncc(-c2ccccc2C(=O)Nc2cnn(C)c2)c1F,inhibition,"PRVABC59, Concentration 49.5 uM, Number of replicates 2.0, Standard deviation 1.0360539143884941 %",-2.37%
same,inhibition,"PRVABC59, Concentration 99.01 uM, Number of replicates 2.0, Standard deviation 1.667399290859496 %",-2.23%
same,inhibition,"PRVABC59, Concentration 198.0 uM, Number of replicates 2.0, Standard deviation 0.23383160062225883 %",0.357%
CC(C)N(CCN1CCCCCC1)C(=O)C1CCN(c2ccc(C=O)cc2)CC1,inhibition,[3],19.7%
O=C(Nc1nnc(-c2ccncc2)s1)c1cc(Cl)ccc1NS(=O)(=O)c1ccc(Oc2ccccc2Cl)cc1,inhibition,[1],29.5%
O=C(c1cc[nH]c(=O)c1)N1CCc2c(-c3nn[nH]n3)cccc21,inhibition,"PRVABC59, Concentration 49.5 uM, Number of replicates 2.0, Standard deviation 0.2323582732388635 %",2.31%
same,inhibition,"PRVABC59, Concentration 99.01 uM, Number of replicates 2.0, Standard deviation 0.7213210587279376 %",5.35%
same,inhibition,"PRVABC59, Concentration 198.0 uM, Number of replicates 2.0, Standard deviation 1.5234622398107893 %",11.7%
O=C(Nc1cnc2sccn2c1=O)c1cc(Cl)ccc1NS(=O)(=O)c1ccc(Oc2ccccc2Cl)cc1,inhibition,[1],26.4%
CNC(=O)c1cc(Cl)ccc1NS(=O)(=O)c1ccc(OC2CCCC2)nc1,inhibition,"PRVABC59, Concentration 49.5 uM, Number of replicates 2.0, Standard deviation 3.175342555286392 %",4.36%
same,inhibition,"PRVABC59, Concentration 99.01 uM, Number of replicates 2.0, Standard deviation 1.9630970281522893 %",7.37%
same,inhibition,"PRVABC59, Concentration 198.0 uM, Number of replicates 2.0, Standard deviation 1.686696646918694 %",11.5%
O=C(NCc1nnc[nH]1)c1ccn([C@H]2CCCNC2)n1,inhibition,"PRVABC59, Concentration 49.5 uM, Number of replicates 2.0, Standard deviation 1.340215645019518 %",-1.36%
same,inhibition,"PRVABC59, Concentration 99.01 uM, Number of replicates 2.0, Standard deviation 1.9020439305313104 %",-1.28%
same,inhibition,"PRVABC59, Concentration 198.0 uM, Number of replicates 2.0, Standard deviation 1.3156996029574284 %",-2.56%
C[C@]12CC3CC(NC(=O)c4cc(Cl)ccc4NS(=O)(=O)c4ccc(Oc5ccccc5Cl)cc4)(C1)C[C@](C)(C3)C2,inhibition,[1],26.5%
CCOc1ccc(CNC(=O)c2cc(Cl)ccc2NS(=O)(=O)c2ccc(Oc3ccccc3Cl)cc2)cc1,inhibition,[1],30.8%
COc1ccc(C(=O)C2CCN(C(=O)C3CCN(c4ccc(C=O)cc4)CC3)CC2)cc1,inhibition,[3],18.4%
O=Cc1ccc(N2CCC(C(=O)NCc3ccc(-c4ccccn4)cc3)CC2)cc1,inhibition,[2],12.2%
O=Cc1ccc(N2CCC(C(=O)NCC(=O)NCc3ccccc3)CC2)cc1,inhibition,[3],22.3%
CNC(=O)c1ccc(NS(=O)(=O)c2ccc(OC)cc2)cc1,inhibition,"PRVABC59, Concentration 49.5 uM, Number of replicates 2.0, Standard deviation 2.284364246912278 %",2.68%
same,inhibition,"PRVABC59, Concentration 99.01 uM, Number of replicates 2.0, Standard deviation 0.4793170577388709 %",1.73%
same,inhibition,"PRVABC59, Concentration 198.0 uM, Number of replicates 2.0, Standard deviation 0.7665269255037523 %",2.49%
COCCN(Cc1c(C)nn(C)c1C)C(=O)c1cc(Cl)ccc1NS(=O)(=O)c1ccc(Oc2ccccc2Cl)cc1,inhibition,[1],17%
Cn1cc(NC(=O)c2ccccc2C(F)(F)F)c(-c2c[nH]c3ncccc23)n1,inhibition,"PRVABC59, Concentration 49.5 uM, Number of replicates 2.0, Standard deviation 0.5899750414970726 %",-1.95%
same,inhibition,"PRVABC59, Concentration 99.01 uM, Number of replicates 2.0, Standard deviation 0.6097608637254436 %",-0.338%
same,inhibition,"PRVABC59, Concentration 198.0 uM, Number of replicates 2.0, Standard deviation 1.1817489526354386 %",-0.468%
c1ccc2c([C@H]3CCN(Cc4cccn5nccc45)C3)c[nH]c2c1,inhibition,"PRVABC59, Concentration 50.0 uM, Number of replicates 2.0, Standard deviation 2.1789074371414117 %",6.06%
same,inhibition,"PRVABC59, Concentration 100.0 uM, Number of replicates 2.0, Standard deviation 1.840536015731338 %",12%
same,inhibition,"PRVABC59, Concentration 200.0 uM, Number of replicates 2.0, Standard deviation 1.989213912887944 %",16.7%
O=C(Nc1c(Cl)cccc1[N+](=O)[O-])c1cc(Cl)ccc1NS(=O)(=O)c1ccc(Oc2ccccc2Cl)cc1,inhibition,[1],23.3%
CCN(CC)C(=O)C1CCN(C(=O)C2CCN(c3ccc(C=O)cc3)CC2)CC1,inhibition,[3],20.4%
Cc1nn(CCc2cc(F)cc(F)c2)cc1C1CCNCC1,inhibition,"PRVABC59, Concentration 49.5 uM, Number of replicates 2.0, Standard deviation 4.726749335771663 %",-0.042%
same,inhibition,"PRVABC59, Concentration 99.01 uM, Number of replicates 2.0, Standard deviation 5.310861160584991 %",0.775%
same,inhibition,"PRVABC59, Concentration 198.0 uM, Number of replicates 2.0, Standard deviation 2.819064792405374 %",1.96%
CCOc1ccc(CCNC(=O)C2CCN(c3ccc(C=O)cc3)CC2)cc1,inhibition,[3],21%
COCCCN(Cc1ccccc1)C(=O)C1CCN(c2ccc(C=O)cc2)CC1,inhibition,[3],27.2%
CCN(Cc1ccc(F)cc1)C(=O)c1cc(Cl)ccc1NS(=O)(=O)c1ccc(Oc2ccccc2Cl)cc1,inhibition,[1],27.3%
O=Cc1ccc(N2CCC(C(=O)NCc3cncc(Br)c3)CC2)cc1,inhibition,[2],25.5%
CC1(C)CCC(CN2CCN(C(=O)c3cc(Cl)ccc3NS(=O)(=O)c3ccc(Oc4ccccc4Cl)cc3)CC2)=C(c2ccc(Cl)cc2)C1,inhibition,[1],29.7%
O=C(NCc1cccc(-n2cccn2)c1)c1cc(Cl)ccc1NS(=O)(=O)c1ccc(Oc2ccccc2Cl)cc1,inhibition,[1],33.4%
O=C(Nc1n[nH]c2ccc(Br)cc12)c1cc(Cl)ccc1NS(=O)(=O)c1ccc(Oc2ccccc2Cl)cc1,inhibition,[1],36.5%
O=C(Nc1ccc(N2CCOCC2=O)cc1)c1cc(Cl)ccc1NS(=O)(=O)c1ccc(Oc2ccccc2Cl)cc1,inhibition,[1],48.5%
O=C(Nc1ncccc1OCc1ccccc1)c1cc(Cl)ccc1NS(=O)(=O)c1ccc(Oc2ccccc2Cl)cc1,inhibition,[1],21%
O=C(NCc1ccc(Br)cc1)c1cc(Cl)ccc1NS(=O)(=O)c1ccc(Oc2ccccc2Cl)cc1,inhibition,[1],27.5%
Cc1ccc2cccc(NC(=O)c3cc(Cl)ccc3NS(=O)(=O)c3ccc(Oc4ccccc4Cl)cc3)c2n1,inhibition,[1],20.8%
CC(=O)N[C@@H](CCCN)C(=O)Nc1cccc2c(Cl)cc(C)nc12,inhibition,"PRVABC59, Concentration 99.9 uM, Number of replicates 2.0, Standard deviation 3.96053156793845 %",2.63%
CNC(=O)c1ccc2n1CCN(S(=O)(=O)CCn1cnc3ccccc31)[C@@H]2C,inhibition,"PRVABC59, Concentration 49.5 uM, Number of replicates 2.0, Standard deviation 0.21013272273252268 %",-4.07%
same,inhibition,"PRVABC59, Concentration 99.01 uM, Number of replicates 2.0, Standard deviation 0.3030759645931105 %",-5.35%
same,inhibition,"PRVABC59, Concentration 198.0 uM, Number of replicates 2.0, Standard deviation 0.7496083375745093 %",-9.59%
CNC(=O)c1cc(Cl)ccc1NC(=O)CNc1ccc(S(N)(=O)=O)cc1F,inhibition,"PRVABC59, Concentration 49.5 uM, Number of replicates 2.0, Standard deviation 1.11548428656061 %",-4.54%
same,inhibition,"PRVABC59, Concentration 99.01 uM, Number of replicates 2.0, Standard deviation 0.8274198492953218 %",-5.58%
same,inhibition,"PRVABC59, Concentration 198.0 uM, Number of replicates 2.0, Standard deviation 0.7559141804613152 %",-7.96%
COc1ccc(-c2cc(NC(=O)c3cc(Cl)ccc3NS(=O)(=O)c3ccc(Oc4ccccc4Cl)cc3)[nH]n2)cc1,inhibition,[1],57.5%
CC(C)(C)OC(=O)NC1CN(C(=O)C2CCN(c3ccc(C=O)cc3)CC2)C1,inhibition,[3],20.6%

# Reference: ChEMBL document CHEMBL5606458, “ASAP - ZIKV NS2B-NS3 protease fluorescence single point” (2024)
